Assay results taken from PubChem BioAssay AID1159614 (National Center for Advancing Translational Sciences (NCATS), 2016).
Screen size: about 45,000 compounds; about 65 (0.1%) were called active. Calls follow the shape of the dose curve; as a rule, active = well fitted activation curve with a large enough effect; inconclusive = small, poorly fitted or top-dose-only effect; inactive = no such curve, though single readings can be large or run the other way. Some of the results follow.

target: Galactocerebrosidase (Homo sapiens) (UniProt P54803); assay: A Novel Cell-Based Assay to Identify Small Molecules for B -Galactocerebrosidase; details: 145M-Twi-hGALC-G270D cells (Twitcher mouse brain line with human GALC G270D), HMU-beta-Gal fluorescence, 48 h; series mostly up to 57.5 µM; activation: at the top concentration; also: 0% is about no effect; nearly all actives have a fitted effect of over 65% in size
Chain of UniProt P54803 (P54803 whole entry, looked up): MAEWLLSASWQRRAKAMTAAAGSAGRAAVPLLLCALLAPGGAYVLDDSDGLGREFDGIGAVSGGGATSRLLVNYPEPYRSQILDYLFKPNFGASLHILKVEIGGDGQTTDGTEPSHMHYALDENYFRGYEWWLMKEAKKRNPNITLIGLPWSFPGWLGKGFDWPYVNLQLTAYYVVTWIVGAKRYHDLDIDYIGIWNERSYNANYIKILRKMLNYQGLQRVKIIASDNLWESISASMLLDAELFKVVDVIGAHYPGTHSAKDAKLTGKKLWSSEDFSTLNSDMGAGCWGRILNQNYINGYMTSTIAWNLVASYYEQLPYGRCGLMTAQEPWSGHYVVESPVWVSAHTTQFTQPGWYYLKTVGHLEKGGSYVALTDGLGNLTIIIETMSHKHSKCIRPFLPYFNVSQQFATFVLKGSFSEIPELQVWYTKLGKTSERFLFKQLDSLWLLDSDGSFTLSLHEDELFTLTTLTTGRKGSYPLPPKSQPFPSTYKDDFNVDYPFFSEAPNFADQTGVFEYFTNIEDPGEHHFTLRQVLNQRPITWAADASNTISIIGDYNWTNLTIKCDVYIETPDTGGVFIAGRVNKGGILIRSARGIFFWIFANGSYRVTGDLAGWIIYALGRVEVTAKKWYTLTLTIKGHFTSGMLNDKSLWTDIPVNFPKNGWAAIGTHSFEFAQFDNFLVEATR
Procedure, shortened: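 Fluorescence readout: HMU-β-gal cleavage by mutant GALC (0.1 mM final, citrate/phosphate pH 5.2 with 1 mg/mL taurocholate), stopped with carbonate/bicarbonate plus Triton X-100. Cells: murine Twitcher 145M-Twi expressing human G270D GALC; qHTS for activators.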

activation, inactive:
CC(C)c1ccc(N2C(=O)N(Cc3ccccc3Cl)c3ccccc3S2(=O)=O)cc1 -11.4%
COCCNC(=O)CCCn1c(SCc2ccccc2Cl)nc2c(sc3ccccc32)c1=O -21.5%
COC(=O)c1c(-c2ccccc2)c(-c2ccccc2)nn(C)c1=O -16%
COc1ccc(-n2c(=O)c3c(c4cc(OC)ccc4n3C)n(CCC(C)C)c2=O)cc1 17.9%
COc1ccccc1C1CC(=O)N(c2cccc(C(F)(F)F)c2)C2=C1C(=O)OC2 (stereo unspecified) -4.08%
CCCCOc1ccc(C(=O)N(Cc2ccco2)Cc2ccco2)cc1 4.62%
COC(=O)c1ccc([C@H]2Nc3ccc(S(=O)(=O)Nc4cccc(C)c4)cc3[C@H]3C=CC[C@H]32)cc1 -12.7%
COc1ccccc1N1CCN(C(=O)c2cnc(N3CCOCC3)c3ccccc23)CC1 -0.494%
Cc1cc(CN2CCN(c3ccc(F)cc3)CC2)cs1 -4%
O=c1[nH]c(SCc2cccc(Cl)c2)nc2c1CCC2 -16.2%
CCN1CCSc2ccc(C(=O)NCc3ccccc3Br)cc21 -0.137%
CCC(=O)Nc1nnc2n1CCS2 -6.53%
Cc1cccc(N(CC(N)=O)C2SC(=O)N(Cc3cccc(C(=O)O)c3)C2=O)c1 (stereo unspecified) -2.59%
Cc1ccc(/C=N/n2c(-c3ccccc3)csc2=S)cc1 -7.84%
Cc1c(-c2nnc(SCC(=O)Nc3ccc(Cl)cc3)o2)nnn1-c1ccc(F)cc1 -1.73%
Cc1cc(Br)cc2c(C(=O)OCC(=O)c3ccccc3)cc(-c3ccccc3)nc12 -14.1%
COc1ccccc1N1CCN(C(=O)CCS(=O)(=O)c2cc(Br)cc3c2N(C(C)=O)CC3)CC1 -1.15%
COc1ccc(Cn2c(CO)cnc2SCc2cccc(C)c2)cc1 -15%
Cc1nc(N2CCCC2)ncc1C(=O)N1CCN(c2ccccc2F)CC1 -14.6%
O=C(COc1ccc(Cl)cc1)NCC(c1ccco1)S(=O)(=O)c1ccc(Cl)cc1 (stereo unspecified) -4.53%
Cc1cc(C)c2oc(-c3ccc(C)c(NC(=O)/C=C/c4ccco4)c3)nc2c1 -9.88%
COc1ccc(CNC(=O)c2cc3c(=O)n(C)c4ccccc4c3n2C)c(OC)c1 -23.3%
O=C(Nc1ccccc1)OCC(CN1CCCCC1)OC(=O)Nc1ccccc1 (stereo unspecified) -5.6%
Cc1ccc(NC(=O)c2nnn(CC(=O)Nc3ccc(C)c(Cl)c3)c2N)c(C)c1 -11.9%
CCS(=O)(=O)c1c(Nc2cc(C)ccc2C)sc(C(=O)c2ccccc2)c1N -12.7%
CC1=C(C(=O)Nc2ccccc2)C(c2cc(Br)ccc2F)n2ncc(C(=O)Nc3ccccc3)c2N1 (stereo unspecified) -0.688%
Cc1ccc(C(=O)n2nc(C)c(S(=O)(=O)N3CCOCC3)c2C)cc1C 0.273%
COc1cccc(-c2nc(S(=O)(=O)c3ccccc3)c(N3CCC(C)CC3)o2)c1 -25.4%
O=c1c2ccccc2nc(-c2ccc(Cl)cc2)n1CCCOc1ccccc1F 0.876%
CC(=O)Nc1nonc1-c1nnc(SCc2ccccc2F)n1C -12.5%
CCc1ccccc1NS(=O)(=O)c1ccc2c(c1)CC(=O)N2 13.1%
CC(C)(C)C(=O)OCOC(=O)[C@@H]1N2C(=O)[C@@H](NC(=O)[C@H](N)c3ccccc3)[C@H]2SC1(C)C -6.52%
CCOC(=O)c1cc(S(=O)(=O)Nc2cc(F)ccc2C)[nH]n1 -12.8%
CCCc1nn2c(=O)cc(COC(=O)c3ccccc3NC(=O)COc3ccccc3)nc2s1 -4.73%
COc1ccc(-c2cc(C(F)(F)F)n3nc(-c4ccccc4)cc3n2)cc1OC -6.65%
CCc1ccc(NC(=O)Cn2c(=O)n(CCC(C)C)c(=O)c3cccnc32)cc1 -18.8%
O=C(OCc1ccccc1)c1ccc(O)cc1 -17.3%
CCOC(=O)N1CCc2c(sc3c2C(=O)NC(c2cc(OC)c(OC)c(OC)c2)N3)C1 (stereo unspecified) -13.4%
COc1ccccc1NC(=O)c1c(NCc2ccc(C)o2)sc2c1CCCCC2 -17%
CCCCSc1nnc2n(-c3ccc(OC)cc3)c(=O)c3c4c(sc3n12)COC(C(C)C)C4 (stereo unspecified) -23.8%
Cc1ccc(/C=C/c2onc(C)c2S(=O)(=O)N2CCC(C(=O)Nc3ccccc3C(F)(F)F)CC2)cc1 -0.487%
CC(=O)c1ccc(N2CCN(c3ncnc4c3c(-c3ccccc3)cn4-c3ccc(Cl)cc3)CC2)cc1 -6.43%
COc1ccc(-n2c(=O)c3c(c4cc(OC)ccc4n3C)n(Cc3cccc(C)c3)c2=O)cc1 3.74%
COc1ccc2c(c1)c(=O)c(S(=O)(=O)c1ccccc1)cn2CC(=O)Nc1ccc(C)c(Cl)c1 2.42%
COc1cccc(CNC(=O)Cn2nc(-c3ccc(Cl)cc3)ccc2=O)c1 -22.6%
CC(=O)c1ccc(NC(=O)c2cc(C)nc3c2c(C)nn3-c2ccc(C)cc2)cc1 -11.3%
Cc1cccc2c1N(Cc1ccccc1OCCC(C)C)C(=O)C2=O -0.773%
CNC(=O)CSc1cn(CC(=O)N2CCCCCC2)c2ccccc12 3.15%
CC1=C(C(=O)Nc2ccc(C)cc2C)C(c2cccs2)n2nc(SCc3cccc(C)c3)nc2N1 (stereo unspecified) 10.2%
COc1ccc(-n2cc(C(=O)NCCc3cc(OC)ccc3OC)c3ccccc3c2=O)cc1 6.91%
CCC(C(=O)Nc1cccc(-c2nc3cccnc3s2)c1C)c1ccccc1 (stereo unspecified) 2.97%
CC(C)CC(=O)Nc1nnc(S(=O)(=O)N(C)Cc2ccc(Cl)cc2)s1 -7.2%
CCOC(=O)c1c(C)[nH]c(C)c1S(=O)(=O)N1CCCC(C(=O)NCc2ccc(N(C)C)cc2)C1 (stereo unspecified) -8.54%
O=C(CCOc1ccccc1)N(Cc1cccnc1)c1nc2ccc(Cl)cc2s1 -23.6%
CCOc1ccc(NC(=O)CSc2oc(-c3ccc(F)cc3)nc2S(=O)(=O)c2ccc(C)cc2)cc1 1.52%
CC(=O)CCC(=O)O -11.5%
COc1ccc(OC)c(NC(=O)CN2C(=O)CC(C)Sc3ccccc32)c1 (stereo unspecified) -3.21%
Cc1ccc(-n2c(=O)c3c4c(sc3n(Cc3cc(=O)n5ccccc5n3)c2=O)CCC4)cc1C -17.3%
COc1ccc(CNC(=O)Cn2ccc3cc(S(=O)(=O)N4CCCCC4)ccc32)cc1OC -3.52%
Cc1ccc(CN(Cc2ccco2)C(=O)c2oc3cc(Br)ccc3c2C)cc1 -11.4%
Cc1nc2nc(NC(=O)c3ccc(C(C)(C)C)cc3)[nH]n2c(=O)c1Cc1ccccc1 -20.8%
O=C(Nc1ccc(Br)cc1F)c1cc(S(=O)(=O)NC2CCCCC2)ccc1F -17.3%
CCOC(=O)c1ccc(NC(=O)CSc2nc3cc4ccccc4cc3[nH]2)cc1 -29.1%
O=C1N(Cc2ccccc2Cl)c2ccccc2C1(O)c1c[nH]c2ccccc12 (stereo unspecified) -17.9%
CC1=C(C(=O)OCC2CCCCC2)C(c2ccc(Cl)cc2)CC(=O)N1 (stereo unspecified) -1.56%
COc1cc(CN2CCN(S(=O)(=O)c3ccc(NC(C)=O)cc3)CC2)cc(OC)c1OC -16.3%
C/C=C(/C(=C/C)c1ccc(OC(C)=O)cc1)c1ccc(OC(C)=O)cc1 -13.1%
COc1ccc(Cl)cc1NC(=O)N(C)CCc1c(C)nn(C)c1C -5.85%
COc1ccccc1NC(=O)c1oc2ccccc2c1NC(=O)COc1cccc(C)c1 -17.8%
Cc1ccc2oc(-c3ccc(C)c(NC(=O)C(C)(C)Oc4ccc(Cl)cc4)c3)nc2c1 -24.7%
CCn1cc(C(=O)NCCc2ccc(OC)c(OC)c2)c(=O)c2cc(S(=O)(=O)N3CCCCCC3)ccc21 -7.82%
Cc1cccc(Cn2c(=O)n(Cc3ccccc3)c(=O)c3c2c2cc(C)ccc2n3C)c1 -11.6%
CC(=O)c1ccc(NS(=O)(=O)c2c(C)nc3scc(C)n3c2=O)cc1 -25.7%
CCOC(=O)c1sc2ccccc2c1S(=O)(=O)Nc1ccc(C(C)=O)cc1 -7.55%
CCc1ccc(N(CC)C(=O)Cn2nc(Cc3cccnc3)c3ccccc3c2=O)cc1 -1.06%
CSc1ncc(C(=O)Nc2ccc(C)c(Cl)c2)c(-c2ccccc2)n1 6.11%
Cc1sc2ncn(CC(=O)Nc3ccc(C(C)C)cc3)c(=O)c2c1S(=O)(=O)N1CCN(c2ncccn2)CC1 -13%
COc1ccc(S(=O)(=O)Nc2ccc3oc4c(c3c2)CCCC4)cc1 -16.5%
COc1ccc2c(c1)sc1ncc(C(=O)NCc3ccccc3F)c(=O)n12 -15.7%
Cc1ccc(S(=O)(=O)c2nnn3c2nc(NC(C)C)c2cc(Cl)ccc23)cc1C -13.6%
CC1(C)N=C(SCc2ccccc2Cl)c2ccccc2N1 -6.65%
CCCCNC(=O)CSc1nc2n[nH]c(C)c2c(=N)n1-c1cccc(Cl)c1C -9.8%
Cc1cccc(-c2noc(-c3cccnc3NCc3ccc(Cl)cc3)n2)c1 -9.28%
O=C(c1cccc(Cl)c1)N1c2nc(-c3ccco3)nn2C2(CCCCC2)[C@@H]2CCCC[C@@H]21 -15.4%
CCOc1ccc(NS(=O)(=O)c2ccc(C(=O)N(C)C)s2)cc1 -14.7%
C#CCn1c(=NC(=O)c2ccc3c(c2)OCCO3)sc2cc(OC)c(OC)cc21 -20%
COc1ccc(CCNC(=O)CCCCn2c(=O)c3ccccc3n(CC(=O)Nc3c(C)cccc3C)c2=O)cc1OC -9.25%
O=C(CCSCc1cccc(Cl)c1)N1CCN(c2ccc(Cl)cc2)CC1 -9.08%
COc1cccc(NC(=O)CC(=O)Nc2ccc3nc4n(c(=O)c3c2)CCCCC4)c1 -10.4%
Cc1nc2ccc(S(=O)(=O)CCC(=O)Nc3ccc(Cl)cc3)cc2s1 -9.49%
COC(=O)c1scc(-c2ccc(C)cc2)c1S(=O)(=O)N1CCN(c2ccccc2)CC1 -14.1%
CCOC(=O)c1c(C)[nH]c(C)c1S(=O)(=O)NCC(=O)Nc1cccc(C#N)c1 2.7%
COc1ccc(S(=O)(=O)N2CCC(C(=O)Nc3ccccc3)CC2)cc1OC -7.17%
COc1cc(OC)cc(N2C(=O)N(Cc3ccc(C(C)(C)C)cc3)c3ccccc3S2(=O)=O)c1 -10.7%
CCOC(=O)N1CCN(C(=O)CN(c2ccccc2F)S(=O)(=O)c2ccc(C)cc2)CC1 1.05%
Cc1ccc(Cn2cc(S(=O)(=O)c3cccc(Cl)c3)c(=O)c3cc(F)c(N4CCCCC4)cc32)cc1 1.26%
